# PubChem BioAssay (Tox21)
# The shares of active, inactive and inconclusive entries below differ from those in the screen. For some assays here: Potencies of inconclusive entries are doubtful fits and often do not repeat. The source made the active and inactive calls. Unless noted, the call rests on the fitted dose curve.
# What was measured:
# [1] = molecular target: Peroxisome proliferator-activated receptor delta (Homo sapiens) (UniProt Q03181); experiment: qHTS assay to identify small molecule agonists of the peroxisome proliferator-activated receptor delta (PPARd) signaling pathway (AID 743212); conditions: HEK293H PPARd-UAS-bla, beta-lactamase FRET ratio, 17 h; activation: at 62.6 µM (top of the series) unless noted;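 further: HEK293H cells with PPARd UAS beta-lactamase reporter GeneBLAzer system; on the % scale 0 is the no-effect control and ±100 the full control effect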
# In short: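 Beta-lactamase reporter readout: a ratiometric FRET signal from the LiveBLAzer substrate after 2 h at room temperature. Compound exposure at 37 °C in PPARδ-bla HEK293H cells driven by an upstream activator sequence.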
# [2] = qHTS assay to identify small molecule antagonists of the peroxisome proliferator-activated receptor delta (PPARd) signaling pathway - cell viability counter screen (AID 743213; active means well fitted curve in the direction sought with a large enough effect in the repeat runs; inconclusive means weak or mixed curves; inactive means no such curve, though single readings can be large; an effect the other way counts as inactive or inconclusive; further: potency means the concentration at half of the fitted maximal effect; nearly all actives have a fitted effect of over 50% in size); conditions: PPARd-bla HEK293H viability, CellTiter-Glo luminescence, 17 h; viability change, negative = cytotoxic: at 62 µM (top of the series) unless noted
# In short: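 Viability counter-screen, qHTS format: PPARd-bla HEK293H, L165041 300 nM final, 17 h compound exposure at 37 C, CellTiter-Glo luminescence after 30 min RT.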
# [3] = molecular target: Bile acid receptor (Homo sapiens) (UniProt Q96RI1); experiment: qHTS assay to identify small molecule antagonists of the farnesoid-X-receptor (FXR) signaling pathway (AID 743217; active means well fitted inhibition curve with a large enough effect in the signal ratio in the repeat runs, not every such curve was filed as active; inconclusive means weak or mixed curves, or effect the other way; inactive means no such curve, though single readings can be large or run the other way; the % refers to the signal ratio; further: on the % scale 0 is the no-effect control and ±100 the full control effect); conditions: HEK293T FXR-UAS-bla, beta-lactamase ratio, CDCA-stimulated, 16 h; activity change, negative = inhibition: at 62.6 µM (top of the series) unless noted
# In short: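 FRET fluorescence after 2 h room-temperature LiveBLAzer loading gives the readout. Prior step: FXR-bla HEK 293T cells, seeded and incubated 5 h, received test compounds plus 50 uM final CDCA for 16 h at 37 °C.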
# [4] = qHTS assay to identify small molecule agonists of the farnesoid-X-receptor (FXR) signaling pathway - cell viability counter screen (AID 743218; active means well fitted curve in the direction sought with a large enough effect in the repeat runs; inconclusive means weak or mixed curves; inactive means no such curve, though single readings can be large; an effect the other way counts as inactive or inconclusive; further: potency means the concentration at half of the fitted maximal effect; nearly all actives have a fitted effect of over 45% in size); conditions: FXR-bla HEK293T viability, CellTiter-Glo luminescence, 16 h; viability change, negative = cytotoxic: at 62.6 µM (top of the series) unless noted
# In short: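 Readout: CellTiter-Glo luminescence, 30 min RT, multiplexed after the FXR-bla FRET reading. HEK 293T FXR-UAS-bla cells received compound 5 h post-plating and were incubated 16 h at 37 C.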
# [5] = qHTS assay to identify small molecule antagonists of the farnesoid-X-receptor (FXR) signaling pathway - cell viability counter screen (AID 743221; active means well fitted cell-killing curve with a large enough effect in the repeat runs, not every such curve was filed as active; inconclusive means weak or mixed curves, or effect the other way; inactive means no such curve, though single readings can be large or run the other way; further: potency means the concentration at half of the fitted maximal effect; nearly all actives have a fitted effect of over 50% in size); conditions: FXR-bla HEK293T viability, CellTiter-Glo luminescence, 16 h; activity change, negative = cytotoxicity: at 62.6 µM (top of the series)
# In short: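 Luminescence from CellTiter-Glo measures cytotoxicity in GeneBLAzer FXR-UAS-bla HEK 293T cells. Cells were exposed to compounds with 50 uM chenodeoxycholic acid (final) for 16 h at 37 C, in wells also used for the reporter readout.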
# [6] = molecular target: Vitamin D3 receptor (Homo sapiens) (UniProt P11473); experiment: qHTS assay to identify small molecule agonists of the vitamin D receptor (VDR) signaling pathway (AID 743222); conditions: HEK293T VDR-UAS-bla, beta-lactamase FRET ratio, 16 h; activation: at 63.5 µM (top of the series) unless noted; further: on the % scale 0 is the no-effect control and ±100 the full control effect
# In short: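 Following 4 h attachment at 37C, VDR-bla cells (2,000 per well) received DMSO-dissolved compounds or controls. After 16 h incubation, LiveBLAzer B/G FRET substrate was added and fluorescence read 2 h later at room temperature.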
# [7] = molecular target: Vitamin D3 receptor (Homo sapiens) (UniProt P11473); experiment: qHTS assay to identify small molecule antagonists of the vitamin D receptor (VDR) signaling pathway (AID 743223; active means well fitted inhibition curve with a large enough effect in the signal ratio in the repeat runs, not every such curve was filed as active; inconclusive means weak or mixed curves, or effect the other way; inactive means no such curve, though single readings can be large or run the other way; the % refers to the signal ratio; further: potency means the concentration at half of the fitted maximal effect); conditions: VDR-UAS-bla HEK293T, beta-lactamase FRET ratio, 16 h; activity change, negative = inhibition: at 61 µM (top of the series) unless noted
# In short: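 Antagonist mode uses 1alpha,25-dihydroxyvitamin D3 at 3 nM final as stimulus. VDR-bla cells receive compounds in DMSO, incubate 16 h at 37C, then a beta-lactamase FRET substrate for 2 h at room temperature before fluorescence measurement.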
# [8] = qHTS assay to identify small molecule agonists of the vitamin D receptor (VDR) signaling pathway - cell viability counter screen (AID 743224; active means well fitted curve in the direction sought with a large enough effect in the repeat runs; inconclusive means weak or mixed curves; inactive means no such curve, though single readings can be large; an effect the other way counts as inactive or inconclusive; further: nearly all actives have a fitted effect of over 50% in size; further: potency means the concentration at half of the fitted maximal effect); conditions: VDR-bla HEK293T viability, CellTiter-Glo luminescence, 16 h; activity change, negative = cytotoxicity: at 62.6 µM (top of the series)
# In short: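 In parallel with the bla FRET readout, cytotoxicity toward VDR-bla cells after 16 h compound exposure was assessed by CellTiter-Glo, with luminescence recorded after a 30 min room-temperature incubation.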
# [9] = qHTS assay to identify small molecule antagonists of the vitamin D receptor (VDR) signaling pathway - cell viability counter screen (AID 743225; active means well fitted curve in the direction sought with a large enough effect in the repeat runs; inconclusive means weak or mixed curves; inactive means no such curve, though single readings can be large; an effect the other way counts as inactive or inconclusive; further: potency means the concentration at half of the fitted maximal effect; nearly all actives have a fitted effect of over 50% in size); conditions: VDR-bla HEK293T viability, CellTiter-Glo luminescence, 16 h; viability change, negative = cytotoxic: at 61 µM (top of the series) unless noted
# In short: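 Read-out: CellTiter-Glo luminescence measured 30 min after reagent addition at room temperature. Cells were VDR-bla HEK 293T exposed 16 h at 37C, 5% CO2, to compound with 3 nM final calcitriol agonist.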
# [10] = qHTS assay to identify small molecule antagonists of the retinoid-related orphan receptor gamma (ROR-gamma) signaling pathway - cell viability counter screen (AID 1159520; active means well fitted curve in the direction sought with a large enough effect in the repeat runs; inconclusive means weak or mixed curves; inactive means no such curve, though single readings can be large; an effect the other way counts as inactive or inconclusive; further: nearly all actives have a fitted effect of over 50% in size; further: potency means the concentration at half of the fitted maximal effect)
# In short: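 Cytotoxicity was read from cellular ATP (CellTiter-Glo luminescence) after 16 hr at 37 C with 1 uM doxycycline induction. The inducer was added 2 hr after compound transfer to Tet-on ROR gamma CHO cells.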
# [11] = qHTS assay to identify small molecule agonists of the AP-1 signaling pathway - cell viability counter screen (AID 1159525); further: nearly all actives have a fitted effect of over 55% in size; further: potency means the concentration at half of the fitted maximal effect
# In short: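 Intracellular ATP by Cell Titer Glo luminescence (30 min, RT) in the same ME-180 AP-1-bla wells after the 5 h compound exposure at 37 °C. Normalised to tetra n-octyl ammonium bromide and DMSO controls.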
# [12] = qHTS assay to identify small molecule agonists of the AP-1 signaling pathway (AID 1159526); conditions: ME-180 (cervical carcinoma) AP-1-bla reporter, beta-lactamase FRET ratio, 5 h; activation: at 76.8 µM (top of the series) unless noted; further: potency means the concentration at half of the fitted maximal effect
# [13] = molecular target: Retinoic acid receptor RXR-alpha (Homo sapiens) (UniProt P19793); experiment: qHTS assay to identify small molecule agonists of the RXR signaling pathway (AID 1159527); conditions: HEK293T RXRa-UAS-bla, beta-lactamase ratio, 16 h; activation: at 76.8 µM (top of the series) unless noted; further: nearly all actives have a fitted effect of over 35% in size; further: potency means the concentration at half of the fitted maximal effect
# In short: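 Read-out: beta-lactamase FRET ratio (405 nm excitation, 460 and 530 nm emission) after 2 hr substrate loading at room temperature. Cells were RXR-alpha-UAS-bla HEK 293T treated with compounds for 16 hr in 2% charcoal-stripped FBS medium.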
# [14] = qHTS assay to identify small molecule antagonists of the retinoid acid receptor (RAR) signaling pathway - cell viability counter screen (AID 1159551; active means well fitted curve in the direction sought with a large enough effect in the repeat runs; inconclusive means weak or mixed curves; inactive means no such curve, though single readings can be large; an effect the other way counts as inactive or inconclusive; further: potency means the concentration at half of the fitted maximal effect; nearly all actives have a fitted effect of over 35% in size)
# In short: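 Viability of C3RL4 cells is quantified from ATP by luminescence after 6 h treatment at 37 C with compounds and 1 uM retinol.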
# [15] = molecular target: Bile acid receptor (Homo sapiens) (UniProt Q96RI1); experiment: qHTS assay to identify small molecule agonists of the farnesoid-X-receptor (FXR) signaling pathway (AID 743220; active means well fitted activation curve with a large enough effect in the signal ratio in the repeat runs, not every such curve was filed as active; inconclusive means weak or mixed curves, or effect the other way; the % refers to the signal ratio; further: on the % scale 0 is the no-effect control and ±100 the full control effect); conditions: HEK293T FXR-UAS-bla, beta-lactamase FRET ratio, 16 h; activation: at 62.6 µM (top of the series) unless noted
# In short: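 FXR-UAS-bla HEK 293T cells carrying a UAS-driven beta-lactamase reporter were plated for 5 h at 37C/5% CO2, then exposed to DMSO-dissolved Tox21 10K compounds for 16 h at 37C. A LiveBLAzer B/G FRET substrate was loaded for 2 h at room temperature before fluorescence reading.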
# [16] = molecular target: Nuclear receptor ROR-gamma (Homo sapiens) (UniProt P51449); experiment: qHTS assay to identify small molecule antagonists of the retinoid-related orphan receptor gamma (ROR-gamma) signaling pathway (AID 1159521; active means well fitted curve in the direction sought with a large enough effect in the repeat runs; inconclusive means weak or mixed curves; inactive means no such curve, though single readings can be large; an effect the other way counts as inactive or inconclusive)
# In short: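 CHO Tet-on RORγ, RORE-luc reporter. Cpd 2 h pre-incubation, then dox hyclate 1 uM final, 16 h, 37 C/5% CO2. ONE-Glo luminescence; decrease = antagonist.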
# [17] = molecular target: Peroxisome proliferator-activated receptor delta (Homo sapiens) (UniProt Q03181); experiment: qHTS assay to identify small molecule antagonists of the peroxisome proliferator-activated receptor delta (PPARd) signaling pathway (AID 743215; active means well fitted inhibition curve with a large enough effect in the signal ratio in the repeat runs, not every such curve was filed as active; inconclusive means weak or mixed curves, or effect the other way; inactive means no such curve, though single readings can be large or run the other way; the % refers to the signal ratio;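 further: cells stimulated with agonist L165041 at 300 nM final during compound exposure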; further: potency means the concentration at half of the fitted maximal effect); conditions: HEK293H PPARd-UAS-bla, beta-lactamase FRET ratio, antagonist, 17 h; ratio activity, negative = inhibition: at 62 µM (top of the series) unless noted
# In short: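 Fluorescence from cleaved LiveBLAzer B/G FRET substrate (2 h, room temperature) reports PPARd-driven beta-lactamase in HEK293H UAS-bla cells. Cells had been treated 17 h at 37 C with compound plus 300 nM final L165041.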
# [18] = qHTS assay to identify small molecule agonists of the RXR signaling pathway - cell viability counter screen (AID 1159529; active means well fitted curve in the direction sought with a large enough effect in the repeat runs; inconclusive means weak or mixed curves; inactive means no such curve, though single readings can be large; an effect the other way counts as inactive or inconclusive; further: nearly all actives have a fitted effect of over 50% in size; further: potency means the concentration at half of the fitted maximal effect)
# In short: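 HEK 293T RXRa-bla cells, 2% CS-FBS; 5 h settle; cpd 16 h 37 C, 5% CO2; CellTiter-Glo 30 min RT, luminescence. Tetraoctyl ammonium bromide as positive control.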
# Tags describe the fitted curve by direction and shape or compound fluorescence and quenching.
# Sequence of UniProt Q96RI1 (Q96RI1 whole entry, looked up): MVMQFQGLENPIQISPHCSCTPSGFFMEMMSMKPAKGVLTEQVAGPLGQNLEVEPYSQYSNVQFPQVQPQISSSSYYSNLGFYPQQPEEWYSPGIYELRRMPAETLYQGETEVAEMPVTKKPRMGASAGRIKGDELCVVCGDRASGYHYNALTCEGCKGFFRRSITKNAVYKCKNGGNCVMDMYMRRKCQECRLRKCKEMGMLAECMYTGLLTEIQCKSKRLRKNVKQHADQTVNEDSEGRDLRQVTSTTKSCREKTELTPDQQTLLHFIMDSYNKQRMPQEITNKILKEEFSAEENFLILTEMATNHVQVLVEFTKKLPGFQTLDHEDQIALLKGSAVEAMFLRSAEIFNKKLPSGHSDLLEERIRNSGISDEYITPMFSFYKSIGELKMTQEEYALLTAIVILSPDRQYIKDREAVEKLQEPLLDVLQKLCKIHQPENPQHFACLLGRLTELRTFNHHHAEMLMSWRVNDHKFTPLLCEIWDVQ
# Sequence of UniProt P11473 (P11473 whole entry, looked up): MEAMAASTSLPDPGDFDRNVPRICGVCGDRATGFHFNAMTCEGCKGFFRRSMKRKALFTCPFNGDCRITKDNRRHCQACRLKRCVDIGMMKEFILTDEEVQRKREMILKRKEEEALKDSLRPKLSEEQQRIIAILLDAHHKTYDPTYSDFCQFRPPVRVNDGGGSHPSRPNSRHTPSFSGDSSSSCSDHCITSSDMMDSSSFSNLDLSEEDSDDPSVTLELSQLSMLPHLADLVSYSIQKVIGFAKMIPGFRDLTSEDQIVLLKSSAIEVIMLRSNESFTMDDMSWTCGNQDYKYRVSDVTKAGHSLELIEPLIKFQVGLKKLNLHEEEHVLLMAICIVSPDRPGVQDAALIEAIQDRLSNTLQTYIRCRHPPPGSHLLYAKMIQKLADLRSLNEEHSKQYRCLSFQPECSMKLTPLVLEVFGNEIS
# Sequence of UniProt Q03181 (Q03181 whole entry, looked up): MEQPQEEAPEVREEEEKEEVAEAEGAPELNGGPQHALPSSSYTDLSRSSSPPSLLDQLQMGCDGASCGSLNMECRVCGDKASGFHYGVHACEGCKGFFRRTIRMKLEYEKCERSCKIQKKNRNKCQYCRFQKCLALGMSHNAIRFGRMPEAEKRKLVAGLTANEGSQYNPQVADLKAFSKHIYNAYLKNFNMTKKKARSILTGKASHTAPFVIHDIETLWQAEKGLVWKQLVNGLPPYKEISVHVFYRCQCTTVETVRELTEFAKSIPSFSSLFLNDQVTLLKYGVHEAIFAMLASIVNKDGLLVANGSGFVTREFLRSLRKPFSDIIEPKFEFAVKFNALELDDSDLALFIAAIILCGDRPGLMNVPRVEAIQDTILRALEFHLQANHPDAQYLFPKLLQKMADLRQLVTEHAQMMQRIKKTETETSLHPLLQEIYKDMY
# Sequence of UniProt P19793 (P19793 whole entry, looked up): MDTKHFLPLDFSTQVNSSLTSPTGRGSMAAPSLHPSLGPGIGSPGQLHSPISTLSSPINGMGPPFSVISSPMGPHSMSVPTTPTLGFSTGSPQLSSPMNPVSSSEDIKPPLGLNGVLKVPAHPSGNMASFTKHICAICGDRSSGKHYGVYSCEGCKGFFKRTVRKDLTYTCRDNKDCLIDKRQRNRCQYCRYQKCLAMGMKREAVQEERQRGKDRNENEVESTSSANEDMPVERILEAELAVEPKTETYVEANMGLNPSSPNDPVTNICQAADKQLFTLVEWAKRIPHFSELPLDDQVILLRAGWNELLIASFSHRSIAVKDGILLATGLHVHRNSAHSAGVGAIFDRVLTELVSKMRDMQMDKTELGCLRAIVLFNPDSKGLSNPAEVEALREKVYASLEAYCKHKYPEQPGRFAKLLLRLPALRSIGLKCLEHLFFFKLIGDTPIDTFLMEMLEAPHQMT
structure (smiles),measurement,setting,value
CC(C)COCC(CN(Cc1ccccc1)c1ccccc1)N1CCCC1 (configuration not stated),activation,[1],inconclusive: -11.6%
same,Potency,[2],"inconclusive: 29.8 µM [cytotoxic, partial curve, poor fit]"
same,"activity change, negative = inhibition",[3],inconclusive: -42.5%
same,Potency,[4],active: 33.5 µM
same,Potency,[5],"inconclusive: 33.5 µM [falling, partial curve, poor fit]"
same,activation,[6],inconclusive: -20.3%
same,Potency,[7],inconclusive: 26.8 µM [single point]
same,Potency,[8],"inconclusive: 26.6 µM [cytotoxic, partial curve]"
same,Potency,[9],"inconclusive: 10.7 µM [cytotoxic, partial curve, poor fit]"
same,Potency,[10],"inconclusive: 29.8 µM [cytotoxic, partial curve]"
same,Potency,[11],inconclusive: 23.9 µM [cytotoxic]
same,Potency,[12],"inconclusive: 15.1 µM [falling, partial curve]"
same,Potency,[13],"inconclusive: 26.8 µM [cytotoxic, single point]"
same,Potency,[14],"inconclusive: 33.5 µM [cytotoxic, single point]"
O=Cc1ccc(C(=O)O)cc1,Potency,[10],inactive
same,Potency,[12],inactive
CC(=O)OC1CCC(C(C)(C)C)CC1 (configuration not stated),Potency,[7],"inconclusive: 48.5 µM [activator, single point]"
same,Potency,[10],inactive
same,Potency,[11],inactive
O=C1C=CC(=O)N1c1cccc(N2C(=O)C=CC2=O)c1,Potency,[10],active: 12.2 µM
same,Potency,[12],"inconclusive: 17.4 µM [cytotoxic, full curve]"
same,Potency,[13],"inconclusive: 13.8 µM [cytotoxic, full curve]"
same,Potency,[14],active: 21.7 µM
COc1cc(C(=O)OCCCN2CCCN(CCCOC(=O)c3cc(OC)c(OC)c(OC)c3)CC2)cc(OC)c1OC,activation,[1],inconclusive: 1.95%
same,Potency,[2],"inconclusive: 8.41 µM [cytotoxic, full curve]"
same,Potency,[7],inconclusive: 23.9 µM [fluorescent]
same,Potency,[9],"inconclusive: 10.7 µM [cytotoxic, full curve, poor fit]"
same,Potency,[10],"inconclusive: 21.1 µM [cytotoxic, partial curve, poor fit]"
same,Potency,[12],inactive
same,activation,[13],inconclusive: -31.9% [at 35.3 µM]
COCCOC,Potency,[7],inactive
same,Potency,[10],"inconclusive: 73.4 µM [cytotoxic, partial curve, poor fit]"
same,activation,[12],inconclusive: -14.2%
same,activation,[13],inconclusive: -12.3%
same,Potency,[14],"inconclusive: 9.24 µM [rising, full curve]"
COc1cc(S(=O)(=O)O)c(C)cc1N=Nc1c(O)ccc2cc(S(=O)(=O)O)ccc12,Potency,[15],inactive
same,Potency,[10],"inconclusive: 30.6 µM [cytotoxic, partial curve]"
same,Potency,[16],"inconclusive: 9.69 µM [inhibitor, partial curve, poor fit]"
same,Potency,[14],"inconclusive: 43.3 µM [cytotoxic, partial curve]"
[Cl][Dy]([Cl])[Cl],Potency,[10],inactive
same,activation,[12],inconclusive: -16.3%
same,activation,[13],inconclusive: 9.28%
CC(C)(C)c1ccc(OC2CCCCC2O)cc1 (configuration not stated),Potency,[10],"inconclusive: 54.5 µM [cytotoxic, partial curve]"
same,Potency,[11],"inconclusive: 54.9 µM [cytotoxic, single point]"
same,Potency,[12],inconclusive: 49 µM [partial curve]
same,Potency,[13],"inconclusive: 43.6 µM [falling, partial curve, poor fit]"
same,Potency,[14],"inconclusive: 68.6 µM [cytotoxic, single point]"
COC(=O)Nc1nc2ccc(Sc3ccccc3)cc2[nH]1,Potency,[1],inactive
same,Potency,[17],"inconclusive: 1.5 µM [inhibitor, full curve, poor fit]"
same,"ratio activity, negative = inhibition",[17],inconclusive: -20.3%
same,Potency,[4],"inconclusive: 0.0155 µM [cytotoxic, full curve, poor fit]"
same,Potency,[5],"inconclusive: 4.36 µM [falling, partial curve, poor fit]"
same,Potency,[8],"inconclusive: 3.89 µM [cytotoxic, partial curve, poor fit] and inactive"
same,Potency,[10],"inconclusive: 24.3 µM [cytotoxic, partial curve]"
same,Potency,[12],"inconclusive: 0.601 µM [activator, full curve, poor fit]"
same,Potency,[13],"inconclusive: 6.92 µM [rising, partial curve]"
same,activation,[13],inconclusive: -22% [at 35.3 µM]
OCCNCCO,activation,[6],inconclusive: 3.72%
same,Potency,[10],inactive
same,Potency,[12],inactive
same,Potency,[13],"inconclusive: 19.5 µM [activator, full curve]"
same,activation,[13],inconclusive: 19.4%
CCCCCc1ccc(O)cc1,Potency,[10],"inconclusive: 43.3 µM [cytotoxic, partial curve]"
same,Potency,[11],"inconclusive: 54.9 µM [cytotoxic, single point]"
same,Potency,[12],inconclusive: 49 µM
same,activation,[13],inconclusive: -18.3%
same,Potency,[18],"inconclusive: 49 µM [cytotoxic, partial curve]"
CC(COc1ccc(C(C)(C)C)cc1)OS(=O)OCCCl (configuration not stated),"activity change, negative = inhibition",[3],inconclusive: -25.9% [at 81.1 µM]
same,activation,[6],inconclusive: 1.62% [at 81.1 µM]
same,Potency,[10],"inconclusive: 54.8 µM [cytotoxic, partial curve]"
same,Potency,[11],inactive
same,activation,[13],inconclusive: -12.9%
same,Potency,[18],inactive
same,Potency,[14],"inconclusive: 4.88 µM [rising, partial curve]"
COc1ccccc1N=Nc1c(S(=O)(=O)O)cc2cc(S(=O)(=O)O)cc(NC(C)=O)c2c1O,Potency,[10],"inconclusive: 22.9 µM [cytotoxic, partial curve]"
same,Potency,[16],"inconclusive: 32.3 µM [inhibitor, partial curve]"
same,Potency,[14],active: 22.9 µM
